The supplement of paper PMC5499739
The full ranking holds about 16,000 sequences; the median of “Z-score” is about -0.37, and the highest 2% start at about 3.1. The list shows a part of the results.

These sequences were tested on RBM10 RRM1-ZnF-RRM2 (GST-tagged construct) (assay: RNAcompete 7-mer binding Z-score; higher = stronger binding preference).
Experimental: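 RNAcompete: 20 pmol GST-tagged RBM10 RNA-binding constructs were incubated with a designed RNA pool of about 241,000 sequences up to 41 nt (1.5 nmol) on glutathione beads for 30 min at 4 °C and washed. Bound RNAs were identified by microarray hybridisation. Each RNA 7-mer is scored by a one-sided Z-score of its enrichment, computed over probes that contain the 7-mer within longer pool sequences.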

| Sequence | RNAcompete 7-mer binding Z-score |
| --- | --- |
| CCACUUG | -0.81 |
| GGCUAGU | -0.0962 |
| ACCCCGC | -0.686 |
| UAAUGAG | 0.25 |
| GGCGUGU | 1.04 |
| ACGGUUU | 0.0568 |
| CACCUUG | -0.632 |
| UCAGAGG | 0.738 |
| AACGUGU | 0.101 |
| GAGGCCU | -0.497 |
| CCGACCG | -0.566 |
| CGGAGUG | 1.61 |
| ACCCGGC | -0.639 |
| UUAACGG | 0.232 |
| UGCCCAU | -0.795 |
| GCUAGCU | -0.471 |
| AAGCCCU | -0.89 |
| UAGACAA | 0.0896 |
| CGUAAAU | -0.599 |
| CACAUUG | -0.562 |
| GUGACUA | 0.162 |
| UCCUGUA | -0.795 |
| GCUUGCC | -0.697 |

| Sequence | RNAcompete 7-mer binding Z-score |
| --- | --- |
| AUAACCU | -0.825 |
| GCGAAUG | 0.8 |
| UAAAAAA | -0.417 |
| GACCAGC | -0.584 |
| UUGCGCA | -0.497 |
| AGGGCUG | 1.07 |
| CACUCCG | -0.672 |
| AAAAACC | -0.602 |
| AAGGAAU | 2.34 |
| GUAAUAA | -0.162 |
| CCUCCGC | -0.734 |
| GAUCACG | -0.133 |
| AGCCCAC | -0.803 |
| UUGUGAC | -0.453 |
| UCGCUAG | -0.457 |
| AUUUUCA | -0.785 |
| UUCGUCG | -0.3 |
| AUCCCGA | -0.839 |
| UCGACUA | -0.61 |
| CCACGUA | -0.581 |
| UGAUGGA | 1.53 |
| ACCCGAU | -0.712 |
| ACUCGAG | -0.333 |

| Sequence | RNAcompete 7-mer binding Z-score |
| --- | --- |
| GGCGCUG | 0.385 |
| GUCCAAU | -0.347 |
| UAUCUUG | -0.704 |
| GUGUAGU | 0.942 |
| ACAACCC | -0.53 |
| UAUCGGG | 1.13 |
| GGCUGCA | 0.21 |
| CGGUCGU | -0.0816 |
| GAAAACU | -0.176 |
| CCGCGAG | -0.53 |
| AAGUAUA | -0.0925 |
| GCGACCU | -0.712 |
| UGCAUGG | 1.19 |
| ACCCGCU | -0.872 |
| GGAACCU | -0.147 |
| UCAUGAG | -0.169 |
| GGACGUC | 0.148 |
| CCUCUUG | -0.93 |
| CCUCAUG | -0.661 |
| CCUGAAG | -0.504 |
| UCGGAAC | 0.0532 |
| ACUUUCC | -0.905 |
| UAUCUCG | -0.806 |

| Sequence | RNAcompete 7-mer binding Z-score |
| --- | --- |
| UAGAGCA | 0.396 |
| CCAAUCA | -0.537 |
| AUCCCUC | -0.759 |
| CGUCUGC | -0.836 |
| CUUGACC | -0.908 |
| AAUUCGG | 0.0932 |
| CAUAUGC | -0.49 |
| GGCCAGU | 0.173 |
| UAUUACU | -0.581 |
| CCCAGCA | -0.755 |
| ACCGACA | -0.788 |
| CCUCAAG | -0.599 |
| CAGUAGA | 0.352 |
| AGCGUCU | -0.701 |
| AAUAGUU | -0.307 |
| CCCCAAC | -0.683 |
| CAUCAUC | -0.701 |
| GCCGAAA | -0.577 |
| UUUACGU | -0.621 |
| CCAGCGA | -0.0306 |
| CCUUUUC | -0.941 |
| GGCGACG | 1.32 |
| UACGCAC | -0.606 |

| Sequence | RNAcompete 7-mer binding Z-score |
| --- | --- |
| GUACGGA | 1.08 |
| GUCCCCU | -0.497 |
| AAAACAU | -0.231 |
| GGAGAGG | 3.28 |
| GCACCAU | -0.442 |
| GAUUUAC | -0.409 |
| CCACUAU | -0.781 |
| GUCACUG | -0.14 |
| UGCACCG | -0.242 |
| AUUUUGG | 0.159 |
| CCUCCGG | -0.504 |
| CAUCUGG | -0.482 |
| AAUUGCG | 0.0568 |
| AUAGUUU | -0.384 |
| GGCGAGA | 1.74 |
| CUCCAGA | -0.664 |
| AUUUAUC | -0.704 |
| GAGUUUG | 0.512 |
| ACGAGCG | 1.05 |
| GCUCUUG | -0.799 |
| GUCCAAG | -0.0598 |
| GACGCUA | -0.53 |
| GCUUUAG | -0.588 |

| Sequence | RNAcompete 7-mer binding Z-score |
| --- | --- |
| GGAUCUC | -0.176 |
| AAACCCC | -0.788 |
| UUGCCGU | -0.624 |
| AGAGGUA | 2.05 |
| UAGACAG | 0.512 |
| GAUGGCG | 1.82 |
| UGAUCGU | -0.446 |
| UCCUCCU | -0.832 |
| AGAAAUU | -0.318 |
| ACACAUG | -0.0962 |
| GACGCUG | -0.522 |
| UGAGCCU | -0.668 |
| UAGUUAA | -0.377 |
| GAAGAGA | 0.989 |
| UUCCCGA | -0.814 |
| ACAUGAG | 0.472 |
| GGAUGUG | 2.82 |
| UGCCUGC | -0.715 |
| CUCACAA | -0.559 |
| CUCCCUC | -0.657 |
| UUCCCUG | -0.737 |
| AGCCUGC | -0.854 |
| GUACGAG | 0.894 |

| Sequence | RNAcompete 7-mer binding Z-score |
| --- | --- |
| UUCACUA | -0.617 |
| UUUAUUG | -0.413 |
| AAGCCAA | -0.0488 |
| UGAUUAA | -0.118 |
| AUGGUAU | 1.21 |
| GAAACAG | 1.21 |
| AACCCGU | -0.868 |
| UAUCGAG | 0.13 |
| GUUGGAA | 1.48 |
| CUGCUUA | -0.683 |
| GAACCCA | -0.741 |
| GAAUCUC | -0.697 |
| CGACGCU | -0.653 |
| GAUUCGU | -0.202 |
| CCAUUCU | -0.861 |
| ACGCUUG | -0.814 |
| GUUACUA | -0.231 |
| GUACGGU | 1.28 |
| AUACCUG | -0.617 |
| AUAUACC | -0.628 |
| AAUGAAA | -0.213 |
| ACACGCA | -0.351 |
| UCACAGC | -0.384 |

| Sequence | RNAcompete 7-mer binding Z-score |
| --- | --- |
| UUCUUGG | -0.34 |
| AAGUUAC | -0.289 |
| GGAAAAA | 1.95 |
| GCACAUG | 0.0896 |
| UGGCUGG | 1.04 |
| AGCUCUC | -0.621 |
| AACUACC | -0.785 |
| CGCACAC | -0.57 |
| UUAUGUC | -0.613 |
| CUGGAGC | 0.126 |
| UCCGAAA | -0.602 |
| CCAUAUU | -0.857 |
| GAGAGCC | -0.329 |
| UAUAGCA | -0.0962 |
| CAAUCAA | -0.34 |
| CAUGAUC | -0.428 |
| AAGCCCG | -0.887 |
| GCAAUAC | -0.0124 |
| GGUAUUG | 1.09 |
| CCACUCG | -0.73 |
| UUGUAUC | -0.548 |
| UCCAUAC | -0.683 |
| ACCGAUC | -0.726 |
